Test results as given in article PMC4336329 (PLoS ONE, 2015).
Screen size: about 310,000 compounds; about 14,000 (4.5%) showed an effect of 50% or more. The effect is printed as a negative number. Some of the results follow.

molecular target: human ether-à-go-go-related gene (hERG) potassium channel (human, UniProt Q12809); experiment: primary screen, population patch clamp on CHO cells stably expressing hERG
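Further: peak tail current of the secondary pulse compared with the same well before compound.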

Chain of human ether-à-go-go-related gene (hERG) potassium channel (Q12809 whole entry, looked up): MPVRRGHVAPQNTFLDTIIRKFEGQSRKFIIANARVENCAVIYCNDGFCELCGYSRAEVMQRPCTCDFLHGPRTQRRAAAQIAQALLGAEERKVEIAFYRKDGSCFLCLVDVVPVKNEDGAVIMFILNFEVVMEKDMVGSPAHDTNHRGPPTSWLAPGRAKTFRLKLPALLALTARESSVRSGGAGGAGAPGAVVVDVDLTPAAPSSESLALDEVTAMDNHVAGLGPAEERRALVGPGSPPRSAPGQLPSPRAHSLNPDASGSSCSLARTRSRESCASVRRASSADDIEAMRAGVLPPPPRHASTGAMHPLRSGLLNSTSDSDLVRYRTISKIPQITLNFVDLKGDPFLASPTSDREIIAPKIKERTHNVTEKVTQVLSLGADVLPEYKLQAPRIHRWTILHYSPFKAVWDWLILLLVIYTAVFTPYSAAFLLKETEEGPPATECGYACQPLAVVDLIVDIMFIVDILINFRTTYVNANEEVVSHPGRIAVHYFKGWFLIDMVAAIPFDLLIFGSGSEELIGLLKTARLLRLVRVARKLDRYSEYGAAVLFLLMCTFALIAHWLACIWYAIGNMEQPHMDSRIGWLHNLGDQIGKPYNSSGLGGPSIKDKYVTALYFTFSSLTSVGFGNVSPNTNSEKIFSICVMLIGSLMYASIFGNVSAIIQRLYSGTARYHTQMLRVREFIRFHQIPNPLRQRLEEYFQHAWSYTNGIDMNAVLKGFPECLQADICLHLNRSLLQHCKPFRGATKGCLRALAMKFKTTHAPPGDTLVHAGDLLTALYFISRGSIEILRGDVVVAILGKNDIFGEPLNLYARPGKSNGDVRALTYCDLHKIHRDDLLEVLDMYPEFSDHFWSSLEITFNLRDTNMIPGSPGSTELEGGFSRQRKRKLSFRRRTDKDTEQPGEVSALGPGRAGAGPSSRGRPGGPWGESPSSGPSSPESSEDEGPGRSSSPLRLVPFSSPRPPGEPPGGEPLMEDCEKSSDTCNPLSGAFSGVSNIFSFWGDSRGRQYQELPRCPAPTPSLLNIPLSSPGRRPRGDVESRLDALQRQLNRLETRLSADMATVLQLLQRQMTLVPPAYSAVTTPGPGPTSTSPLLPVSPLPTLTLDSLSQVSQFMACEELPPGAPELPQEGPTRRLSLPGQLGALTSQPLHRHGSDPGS

Compound | hERG current change (%, negative = inhibition) at 10uM [%]
CC1(C)CC(=O)C2=C(C1)Nc1ccccc1NC2c1ccc2c(c1)OCO2 (centres unmarked) | 2.58
Cc1nc2c(oc3ccc(Cl)cc32)c(=O)[nH]1 | -2.89
Cc1nccn1-c1c2c(c(C#N)c3nc4ccccc4n13)CCC2 | -3.86
Cc1ccc2c(c1)c1c(c(=O)n(-c3ccccc3)c(=O)n1CC(=O)NCC1CCCO1)n2C (centres unmarked) | 22.4
COC(=O)c1nn(-c2ccccc2)c(=O)cc1O | 14.1
CC(C)CNC(=O)c1ccc(Cl)c(Cl)c1 | 7.1
CC(c1ccccc1)C1C(C#N)=C(N)OC2=C1C(=O)CCC2 (centres unmarked) | -6.39
CSCCCNC(=O)c1ccc(OC2CCN(CCc3ccccc3)CC2)cc1 | -75.2
COc1ccc(S(=O)(=O)N2CCC(C(=O)NCCC3=CCCCC3)CC2)cc1C | -56.2
O=C(CSCc1cccc(Br)c1)N=Nc1c(O)[nH]c2ccccc12 | -9.49
O=C1C(=Cc2ccc(Br)o2)C(=O)c2ccccc21 | 8.44
COc1ccccc1NS(=O)(=O)c1cccc(C(=O)N/N=C/c2c(C)nn(-c3ccccc3)c2N2CCCC2)c1 | 8.01
CCOC(=O)NC1CCS(=O)(=O)C1 (centres unmarked) | 5.2
O=C1N/C(=N\S(=O)(=O)c2ccccc2)S/C1=C\c1cc([N+](=O)[O-])ccc1O | 18.3
CCc1cccc2c(C(=O)COC(=O)c3c(C)noc3C)c[nH]c12 | -3.84
CC(=O)Nc1cccc(NC(=O)c2c(-c3ccccc3)noc2C)c1 | 12.2
COc1ccc(CCNS(=O)(=O)c2ccc3c(c2)CCN3C(=O)CCC(=O)O)cc1OC | 8.32
C=CCSc1nnc(NC(=O)CSc2nc3ccccc3o2)s1 | 4.89
CCOC(=O)C1=C(O)C(=O)N(CCCn2ccnc2)C1c1ccc(OC)cc1 (centres unmarked) | 12.2
CC(Cc1ccccc1)[n+]1cc(/N=C(\[O-])Nc2ccccc2)on1 (centres unmarked) | -17.4
Cc1ccc(-c2nnn(CC(=O)N(c3ccc(F)cc3)C(C(=O)NC3CCCC3)c3ccco3)n2)o1 (centres unmarked) | 10.7
CCOC(=O)C1=C(C)NC(C)=C(C(=O)OC)C1c1cccc([N+](=O)[O-])c1 (centres unmarked) | -25.8

Compound | hERG current change (%, negative = inhibition) at 10uM [%]
Nc1nc(NCc2ccccc2)n(-c2ccccc2)n1 | 14.9
Cc1cc(C)cc(OCC(=O)Nc2ccc(N3CCCC3)cc2)c1 | 11.9
Cc1cc(N2CCOCC2)nc(SCC(=O)c2ccc(Cl)cc2)n1 | -8.11
COc1ccc(-c2cc(C(F)(F)F)nc(SCCC(=O)N3CCN4CCCC4C3)n2)cc1 (centres unmarked) | -15.8
CC(=O)NC1C(Oc2ccc3c(C)cc(=O)oc3c2)OC(COC(C)=O)C(OC(C)=O)C1OC(C)=O (centres unmarked) | 27.3
Cc1cc(C(=O)Nc2cccc(C(=O)O)c2)c(C)o1 | -4.43
C#CCn1c(CCNC(=O)c2ccco2)nc2ccccc21 | 1.81
Cc1ccc(NC(=O)CSc2nnc(CNC(=O)c3cccs3)o2)cc1 | 19.1
CC1Sc2ccc(C(=O)N3CCCC(C(F)(F)F)C3)cc2NC1=O (centres unmarked) | -2.5
CC1=Nc2cc(C(=O)NCc3ccco3)ccc2Sc2ccc(C)cc21 | -23
O=C(NCCc1ccccc1)c1cc(=O)[nH]c2ccccc12 | 12.6
O=c1c2ccccc2ncn1-c1ccc(Cl)cc1Cl | -0.309
CN1N=C(C(=O)N2CCc3c([nH]c4ccccc34)C2c2c(F)cccc2Cl)CCC1=O (centres unmarked) | -97.3
Cc1cc(C)n2nnnc2n1 | 18.5
Cc1ccc(C(=O)N/C(=C\c2sccc2C)C(=O)NCc2ccco2)cc1 | 8.35
O=C(NC(=S)Nc1ccc2oc(=O)ccc2c1)c1ccccc1F | 9.66
c1ccc(CN2CCN(Cc3c[nH]c4ccccc34)CC2)cc1 | -30.2
COc1cccc(-c2nnc(SCC(=O)OC(C)C)n2N)c1 | -6.63
CC(C)(C)c1csc(NC(=O)Cn2cnc3ccccc3c2=O)n1 | -8.09
OCC[C@H]1C[C@H](O)[C@@H](O)[C@]2(CCc3ccccc3O2)O1 | 6.41
COc1ccc(C/C(C)=N\NC(=O)c2c[nH]c3ccccc23)cc1OC | 5.88
COc1ccc(-n2cnc3cc(C(=O)NC4CCCC4)ccc32)cc1 | -67.9
